In publication PMC7819943, “Rice protein-binding microarrays: a tool to detect cis-acting elements near promoter regions in rice” one finds binding signal data, which are given here for 23 sequences.

Some of the results follow.

The assay deals with T1, OsWOX13 (Oryza sativa, UniProt Q5QMM3 1-267).
T1 sequence: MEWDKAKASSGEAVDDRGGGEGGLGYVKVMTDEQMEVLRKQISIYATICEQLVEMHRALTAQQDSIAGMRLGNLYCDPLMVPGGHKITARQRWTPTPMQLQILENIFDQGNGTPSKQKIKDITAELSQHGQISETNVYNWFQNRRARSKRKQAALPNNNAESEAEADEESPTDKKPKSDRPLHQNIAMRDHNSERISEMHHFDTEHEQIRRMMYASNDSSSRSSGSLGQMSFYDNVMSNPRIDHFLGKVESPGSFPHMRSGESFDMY
In words: protein-binding microarray (RPBM); PBS, 2% BSA, 51.3 ng/ul salmon testes DNA, 50 uM zinc acetate, 200 nM TF, 25 C, 1 h; high values mean tight binding. The following applies: protein: recombinant; tags: N-terminal polyhistidine and DsRed monomer fusion (pET32a); label: CyDye5-dUTP incorporated in the synthesized complementary strand; 3' TTTTT single-stranded linker to array surface; dsDNA, one strand shown. The essentials:
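The binding signal is fluorescence intensity per feature, in arbitrary units, read on an Axon 4000B scanner. Polyhistidine- and DsRed-tagged transcription factors (N-terminal fusions) from E. coli BL21-CodonPlus were purified on Ni–NTA and applied at 200 nM for 1 h at 25 °C to a double-stranded, BSA-blocked custom Agilent array in buffer with 50 µM zinc acetate.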
As for “ATTAATGAGAGGATAATTTAGAACTCCATAGAATTCATCTCGGAGTCACCTAGTGCAG”, the binding signal is 13100 fluorescence intensity (a.u.). The figure for “ATATTATTATATTATAATTATACTGTATTTATATCTGATACGGAGTCACCTAGTGCAG” is 9100 fluorescence intensity (a.u.). The figure for “GAAATTGAAGGAGTTGTAGCTATCCAAATACATCAGCTTCCGGAGTCACCTAGTGCAG” is 6770 fluorescence intensity (a.u.).

As for “ATAATTAATCCATGATTAGCCTATGTGATGCTGTAGTAAACGGAGTCACCTAGTGCAG”, the binding signal is 29100 fluorescence intensity (a.u.).

“ACCAAATTATCACTTTGCATCACGGCAACTATTGTTGCTCCGGAGTCACCTAGTGCAG”: the binding signal was 19500 fluorescence intensity (a.u.). The figure for “ATGATCTTGAATGAATGAATGAATGAATACGTTGTCACACCGGAGTCACCTAGTGCAG” is 4130 fluorescence intensity (a.u.); for “AGATAGATAGATATATTTATCCGAGTCCTCCAAGAACACCCGGAGTCACCTAGTGCAG” it is 9400 fluorescence intensity (a.u.). The figure for “GTACCAATAATGTTGATTATGCGTTTATTATTCTCAATGACGGAGTCACCTAGTGCAG” is 10300 fluorescence intensity (a.u.); for “GATTTCTTATTGATTGTTGATCCCACGTGAATAGATAGTACGGAGTCACCTAGTGCAG” it is 12500 fluorescence intensity (a.u.); for “TTAAATTGTTAATACCTCTGTATATCATCCGATCTACGTACGGAGTCACCTAGTGCAG” it is 19600 fluorescence intensity (a.u.).

On to “AGAAATGCAAATCATGGAATTGAGTTCAGCTGGTTAGTTCCGGAGTCACCTAGTGCAG”, for which the binding signal was 4020 fluorescence intensity (a.u.). Take “GCCTAATTGGGTCGGCATTAGGCCATCCAAACTAGGCCCACGGAGTCACCTAGTGCAG”: the binding signal was 29500 fluorescence intensity (a.u.). Consider “CTCTCTAGTAATTATCCATGTGCTCGTCTGGTTGGATTGGCGGAGTCACCTAGTGCAG”, for which the binding signal is 5240 fluorescence intensity (a.u.). Regarding “AACTGATGAGTCGTTGATTTTCTGTAAAATTACGAGTTAACGGAGTCACCTAGTGCAG”, the binding signal is 28400 fluorescence intensity (a.u.). The figure for “AATTGTTAGCCCTTGATTGAGTGGCTGGTGCTCCACGTTTCGGAGTCACCTAGTGCAG” is 28800 fluorescence intensity (a.u.); for “ATTGATGACCTACCAAAATTTTGGTAGTGCCAAATCTTGGCGGAGTCACCTAGTGCAG” it is 5320 fluorescence intensity (a.u.); for “ACCAATCACCACCGCCCAACGCGCACACGCCCACGCGCTCCGGAGTCACCTAGTGCAG” it is 4100 fluorescence intensity (a.u.). The figure for “TAAAATCAATCAGGTTTCAATATCAATAGGTGTTTTCACTCGGAGTCACCTAGTGCAG” is 16300 fluorescence intensity (a.u.); for “GACTTTTCTGAGTGACAATCAAACTAGCTAGCACACATTTCGGAGTCACCTAGTGCAG” it is 6220 fluorescence intensity (a.u.). The figure for “CCATAACACAAATTTAACGCTCATAAAATTTCAAATTAGTCGGAGTCACCTAGTGCAG” is 3640 fluorescence intensity (a.u.); for “GGATCCAATCAGAACACAGTTGCTAGCTGTGAATGTCAAACGGAGTCACCTAGTGCAG” it is 5360 fluorescence intensity (a.u.). Turning to “GACAAAATTGACAGTCTCTCAGGATACATACTGACTGCAACGGAGTCACCTAGTGCAG”, the binding signal is 42000 fluorescence intensity (a.u.). The figure for “TTATAAATATGATAGATAGAAATGTTGAAATATTGTGGAACGGAGTCACCTAGTGCAG” is 8720 fluorescence intensity (a.u.).
